Data: the BET-seq Pho4 binding data (Le et al. 2018)
Some of the results follow. These are noisy estimates, calculated here from bound and input reads.

target: T1, Pho4 (S. cerevisiae) (UniProt P07270); assay: relative binding free energy (BET-seq); higher = weaker binding; conditions: reference: library average
T1 sequence: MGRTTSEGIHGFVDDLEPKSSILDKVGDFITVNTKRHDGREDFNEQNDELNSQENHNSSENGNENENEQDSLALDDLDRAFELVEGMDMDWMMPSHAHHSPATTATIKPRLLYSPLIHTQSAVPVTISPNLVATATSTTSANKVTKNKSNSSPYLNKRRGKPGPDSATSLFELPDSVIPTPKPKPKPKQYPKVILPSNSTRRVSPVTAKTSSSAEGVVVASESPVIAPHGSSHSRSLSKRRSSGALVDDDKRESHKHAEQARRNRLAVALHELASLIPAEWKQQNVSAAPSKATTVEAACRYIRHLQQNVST

| Sequence | relative binding free energy |
| --- | --- |
| GGGTGCACGTGTGGAG | 0.06 kcal/mol |
| GTGTGCACGTGTAGAA | 0.01 kcal/mol |
| AGGCGCACGTGATGAT | 0.14 kcal/mol |
| TGAGTCACGTGGGGGG | -0.05 kcal/mol |
| GTCGTCACGTGTTAAT | 0.14 kcal/mol |
| GCCGTCACGTGTGTTG | 0.17 kcal/mol |
| ATGGACACGTGCAGTT | -0.11 kcal/mol |
| GTGCTCACGTGAAGTG | 0.2 kcal/mol |
| CTCGGCACGTGGGGCG | -0.23 kcal/mol |
| CGTATCACGTGTAAAT | 0.26 kcal/mol |
| GCAGTCACGTGTGTAT | 0.23 kcal/mol |
| TATGACACGTGCGTAT | 0.05 kcal/mol |
| GATGTCACGTGCGTGG | 0.08 kcal/mol |
| GGACACACGTGGAGGT | 0 kcal/mol |
| GTGAGCACGTGTGGTC | 0.08 kcal/mol |
| GGTTCCACGTGATGGC | 0.33 kcal/mol |
| TGATTCACGTGAAGGC | 0.51 kcal/mol |
| ATTTGCACGTGGGCCG | -0.12 kcal/mol |
| ATAGGCACGTGGTGTA | -0.3 kcal/mol |
| CGGGGCACGTGGTACT | -0.18 kcal/mol |
| TAGTCCACGTGGGTGA | -0.08 kcal/mol |
| AAGTGCACGTGCATGG | -0.09 kcal/mol |
| CAGGTCACGTGAAGGT | 0.33 kcal/mol |

| Sequence | relative binding free energy |
| --- | --- |
| TTGATCACGTGTGCAT | 0.15 kcal/mol |
| TGCTTCACGTGGAGGG | 0.26 kcal/mol |
| CTGTGCACGTGGGAAG | -0.15 kcal/mol |
| GATAACACGTGTAGAG | 0.2 kcal/mol |
| CTGGGCACGTGGTGGT | -0.15 kcal/mol |
| TGAATCACGTGAAGTT | 0.52 kcal/mol |
| AATGACACGTGGGCTT | 0.03 kcal/mol |
| TAGGGCACGTGGTACA | -0.32 kcal/mol |
| ATTCTCACGTGGTTTT | 0.22 kcal/mol |
| GTGGGCACGTGTTGCA | -0.01 kcal/mol |
| GAGAACACGTGTTGTT | 0.04 kcal/mol |
| TGAGGCACGTGTAGTC | 0.01 kcal/mol |
| CGGGTCACGTGTCGGA | 0.16 kcal/mol |
| TGCAGCACGTGTCTGT | -0.07 kcal/mol |
| TCGGACACGTGGCGTG | -0.01 kcal/mol |
| GTGAACACGTGGGTTA | 0 kcal/mol |
| ATTATCACGTGGTTCG | 0.22 kcal/mol |
| CGGTGCACGTGTTGTT | 0.01 kcal/mol |
| GAGTCCACGTGGTGGT | 0.12 kcal/mol |
| ATGGACACGTGATGGA | 0.04 kcal/mol |
| TGATGCACGTGGATGG | -0.08 kcal/mol |
| GTGTGCACGTGAATGG | 0.18 kcal/mol |
| AGATTCACGTGGTGTA | 0.1 kcal/mol |

| Sequence | relative binding free energy |
| --- | --- |
| TGTTACACGTGATCTT | 0.08 kcal/mol |
| GTTTACACGTGAAAGT | 0.34 kcal/mol |
| CTATACACGTGGGGAG | -0.12 kcal/mol |
| GTGATCACGTGGTGCG | 0.14 kcal/mol |
| GATCTCACGTGGGCGG | 0.14 kcal/mol |
| CTTATCACGTGGGGTT | -0.02 kcal/mol |
| TGTATCACGTGTCAGT | 0.17 kcal/mol |
| TTCGTCACGTGTTTGG | 0.13 kcal/mol |
| GAATTCACGTGTGGGT | 0.31 kcal/mol |
| AGTGTCACGTGGTAAA | 0.06 kcal/mol |
| AGGGGCACGTGTTGTA | -0.07 kcal/mol |
| ATAAACACGTGATTTT | 0.13 kcal/mol |
| TGGTGCACGTGAACAT | 0.14 kcal/mol |
| ATTTGCACGTGTGCTT | -0.04 kcal/mol |
| GTGTACACGTGCTGGT | 0.1 kcal/mol |
| TTGTTCACGTGTTGCT | 0.22 kcal/mol |
| ATAGTCACGTGCCGGT | 0.02 kcal/mol |
| AGAGTCACGTGGTGGA | 0.14 kcal/mol |
| ATTTTCACGTGTTGGC | 0.31 kcal/mol |
| AAGGCCACGTGCGTGG | -0.09 kcal/mol |
| AAGTTCACGTGTAGGT | 0.32 kcal/mol |
| TGTTTCACGTGGTCGC | 0.18 kcal/mol |
| CAAGTCACGTGGGGGT | -0.05 kcal/mol |

| Sequence | relative binding free energy |
| --- | --- |
| CATAGCACGTGGATTG | 0.14 kcal/mol |
| TAGTTCACGTGAGGAA | 0.27 kcal/mol |
| GTTCTCACGTGGGTGG | 0.21 kcal/mol |
| TAACGCACGTGGGGGA | -0.23 kcal/mol |
| TTCAACACGTGTTTGT | -0.09 kcal/mol |
| TGATTCACGTGTGTGA | 0.2 kcal/mol |
| TGGTGCACGTGTGTGG | 0 kcal/mol |
| AGGTCCACGTGTGGTG | 0.04 kcal/mol |
| TGTGGCACGTGATTTT | 0.13 kcal/mol |
| GATATCACGTGAATGG | 0.33 kcal/mol |
| TGCATCACGTGATGAG | 0.22 kcal/mol |
| TAGGTCACGTGGCGCT | -0.02 kcal/mol |
| TAGTTCACGTGGGAAA | 0.23 kcal/mol |
| CAATTCACGTGAGGAT | 0.51 kcal/mol |
| ATTCACACGTGGGAGG | -0.14 kcal/mol |
| AAGTGCACGTGGGGCG | -0.17 kcal/mol |
| AGTTGCACGTGTTTCT | -0.01 kcal/mol |
| GATTGCACGTGACTGG | 0.11 kcal/mol |
| CAGGGCACGTGAGGAG | 0.1 kcal/mol |
| CGTTTCACGTGTATGA | 0.37 kcal/mol |
| GGCGGCACGTGAGGTC | 0.2 kcal/mol |
| TGGGTCACGTGAGATT | 0.33 kcal/mol |
| GGGGACACGTGAGAGG | 0.17 kcal/mol |

| Sequence | relative binding free energy |
| --- | --- |
| TGTATCACGTGGCCTG | -0.05 kcal/mol |
| GTTCACACGTGTATGT | 0.3 kcal/mol |
| CTTGACACGTGGAGGA | 0.1 kcal/mol |
| GTGCTCACGTGGGTCG | 0.26 kcal/mol |
| GATAGCACGTGAGGAT | 0.24 kcal/mol |
| TTGGGCACGTGAGAAG | 0.33 kcal/mol |
| AGGGTCACGTGTTACA | 0.11 kcal/mol |
| AGAGACACGTGTGGAT | 0.04 kcal/mol |
| TTTCTCACGTGTTGTT | 0.28 kcal/mol |
| ACTGTCACGTGTGTAA | 0.19 kcal/mol |
| CTGGGCACGTGAGCGG | -0.07 kcal/mol |
| GAGATCACGTGCGGGT | 0.15 kcal/mol |
| GTTGGCACGTGTTGGC | 0.04 kcal/mol |
| GCTATCACGTGAGGGG | 0.26 kcal/mol |
| TGGTTCACGTGGGTCT | 0.22 kcal/mol |
| TGGGTCACGTGCGTTT | 0.02 kcal/mol |
| AGCGCCACGTGTGGGA | -0.1 kcal/mol |
| GGGTACACGTGAAAGG | 0.23 kcal/mol |
| AGAGTCACGTGTCGTG | 0 kcal/mol |
| GATAACACGTGGTGGG | 0.06 kcal/mol |
| TATTGCACGTGTGACA | 0.08 kcal/mol |
| TAAGTCACGTGATTCT | 0.27 kcal/mol |
| AGGTACACGTGTGTAA | 0 kcal/mol |
